# Source: the supplement of paper PMC8728848
# The list shows a part of the results.
# B1: Banana lectin (Musa acuminata) (protein)
# chain: MNGAIKVGAHGGNGGSAFDMGPAYRIISVKIFSGDVVDGVDVTFTYYGKTETRHYGGSGGTPHEIVLQEGEYLVGMAGEVANYHGAVVLGKLGFSTNKKAYGPFGNTGGTPFSLPIAAGKISGFFGRGGKFLDAIGVYLEPLEHHHHHH
# Experiments:
# Experiment in all cases: glycan array binding signal (z-score within array); higher = stronger binding
# Details in all cases: glycan notation: IUPAC condensed, linker removed; mutation: W10H
# [1] = target: Gal(a1-6)Glc
# Outline: (§1)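 Glycan array data came from 3228 arrays in the Consortium for Functional Glycomics database, and only arrays with an available protein sequence were kept. Glycan names were put into IUPAC-condensed notation, and columns mapping to the same glycan were averaged. The binding signal is a within-array Z-score, averaged across arrays of one protein sequence run at different concentrations or buffers and across linkers. A negative Z-score can be read as non-binding.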
# [2] = target: Gal(b1-2)Gal
# Outline: as §1
# [3] = target: Gal(b1-3)Gal
# Outline: as §1
# [4] = target: Gal(b1-3)Gal(b1-4)GlcNAc
# Outline: as §1
# [5] = target: Gal(b1-3)GalNAc
# Outline: as §1
# [6] = target: Gal(b1-3)GalNAc(a1-3)[Fuc(a1-2)]Gal(b1-4)Glc
# Outline: as §1
# [7] = target: Gal(b1-3)GalNAc(a1-3)[Fuc(a1-2)]Gal(b1-4)GlcNAc
# Outline: as §1
# [8] = target: Gal(b1-3)GalNAc(b1-3)Gal
# Outline: as §1
# [9] = target: Gal(b1-3)GalNAc(b1-3)Gal(a1-4)Gal(b1-4)Glc
# Outline: as §1
# [10] = target: Gal(b1-3)GalNAc(b1-4)Gal(b1-4)Glc
# Outline: as §1
# [11] = target: Gal(b1-3)GalNAc(b1-4)[Neu5Ac(a2-3)]Gal(b1-4)Glc
# Outline: as §1
# [12] = target: Gal(b1-3)GlcNAc
# Outline: as §1
# [13] = target: Gal(b1-3)GlcNAc(a1-3)Gal(b1-4)GlcNAc
# Outline: as §1
# [14] = target: Gal(b1-3)GlcNAc(a1-6)Gal(b1-4)GlcNAc
# Outline: as §1
# [15] = target: Gal(b1-3)GlcNAc(b1-2)Man
# Outline: as §1
# [16] = target: Gal(b1-3)GlcNAc(b1-2)Man(a1-3)[Gal(b1-3)GlcNAc(b1-2)Man(a1-6)]Man(b1-4)GlcNAc(b1-4)GlcNAc
# Outline: as §1
# [17] = target: Gal(b1-3)GlcNAc(b1-2)Man(a1-3)[Gal(b1-3)GlcNAc(b1-2)Man(a1-6)]Man(b1-4)GlcNAc(b1-4)[Fuc(a1-6)]GlcNAc
# Outline: as §1
# [18] = target: Gal(b1-3)GlcNAc(b1-2)Man(a1-3)[GlcNAc(b1-4)][Gal(b1-3)GlcNAc(b1-2)Man(a1-6)]Man(b1-4)GlcNAc(b1-4)GlcNAc
# Outline: as §1
# [19] = target: Gal(b1-3)GlcNAc(b1-2)[Gal(b1-3)GlcNAc(b1-6)]Man(a1-6)[Gal(b1-3)GlcNAc(b1-2)Man(a1-3)]Man(b1-4)GlcNAc(b1-4)GlcNAc
# Outline: as §1
# [20] = target: Gal(b1-3)GlcNAc(b1-3)Gal(b1-3)GlcNAc
# Outline: as §1
# [21] = target: Gal(b1-3)GlcNAc(b1-3)Gal(b1-4)Glc
# Outline: as §1
# [22] = target: Gal(b1-3)GlcNAc(b1-3)Gal(b1-4)GlcNAc
# Outline: as §1
# [23] = target: Gal(b1-3)GlcNAc(b1-3)Gal(b1-4)GlcNAc(b1-2)Man(a1-3)[Gal(b1-3)GlcNAc(b1-3)Gal(b1-4)GlcNAc(b1-2)Man(a1-6)]Man(b1-4)GlcNAc(b1-4)GlcNAc
# Outline: as §1
# [24] = target: Gal(b1-3)GlcNAc(b1-3)Gal(b1-4)GlcNAc(b1-2)[Gal(b1-3)GlcNAc(b1-3)Gal(b1-4)GlcNAc(b1-6)]Man(a1-6)[Gal(b1-3)GlcNAc(b1-3)Gal(b1-4)GlcNAc(b1-2)Man(a1-3)]Man(b1-4)GlcNAc(b1-4)[Fuc(a1-6)]GlcNAc
# Outline: as §1
# [25] = target: Gal(b1-3)GlcNAc(b1-3)Gal(b1-4)GlcNAc(b1-3)Gal(b1-4)GlcNAc(b1-2)[Gal(b1-3)GlcNAc(b1-3)Gal(b1-4)GlcNAc(b1-3)Gal(b1-4)GlcNAc(b1-6)]Man(a1-6)[Gal(b1-3)GlcNAc(b1-3)Gal(b1-4)GlcNAc(b1-3)Gal(b1-4)GlcNAc(b1-2)Man(a1-3)]Man(b1-4)GlcNAc(b1-4)[Fuc(a1-6)]GlcNAc
# Outline: as §1
# [26] = target: Gal(b1-3)GlcNAc(b1-3)Gal(b1-4)GlcNAc(b1-6)[Gal(b1-3)GlcNAc(b1-3)]Gal(b1-4)Glc
# Outline: as §1
# [27] = target: Gal(b1-3)GlcNAc(b1-3)Gal(b1-4)[Fuc(a1-3)]GlcNAc
# Outline: as §1
# [28] = target: Gal(b1-3)GlcNAc(b1-3)Gal(b1-4)[Fuc(a1-3)]GlcNAc(b1-6)[Gal(b1-3)GlcNAc(b1-3)]Gal(b1-4)Glc
# Outline: as §1
# [29] = target: Gal(b1-3)GlcNAc(b1-3)GalNAc
# Outline: as §1
# [30] = target: Gal(b1-3)GlcNAc(b1-6)Gal(b1-4)GlcNAc
# Outline: as §1
# [31] = target: Gal(b1-3)GlcNAc(b1-6)GalNAc
# Outline: as §1
# [32] = target: Gal(b1-3)GlcNAc(b1-6)[Gal(b1-3)]GalNAc
# Outline: as §1
# [33] = target: Gal(b1-3)GlcNAc6S
# Outline: as §1
# [34] = target: Gal(b1-3)[Fuc(a1-4)]GlcNAc
# Outline: as §1
# [35] = target: Gal(b1-3)[Fuc(a1-4)]GlcNAc(b1-2)Man
# Outline: as §1
# [36] = target: Gal(b1-3)[Fuc(a1-4)]GlcNAc(b1-2)Man(a1-3)[Gal(b1-3)[Fuc(a1-4)]GlcNAc(b1-2)Man(a1-6)]Man(b1-4)GlcNAc(b1-4)[Fuc(a1-6)]GlcNAc
# Outline: as §1
# [37] = target: Gal(b1-3)[Fuc(a1-4)]GlcNAc(b1-3)Gal(b1-3)[Fuc(a1-4)]GlcNAc
# Outline: as §1
# [38] = target: Gal(b1-3)[Fuc(a1-4)]GlcNAc(b1-3)Gal(b1-4)[Fuc(a1-3)]GlcNAc
# Outline: as §1
# [39] = target: Gal(b1-3)[Fuc(a1-4)]GlcNAc(b1-6)GalNAc
# Outline: as §1
# [40] = target: Gal(b1-3)[GlcNAc(b1-6)]GalNAc
# Outline: as §1
# [41] = target: Gal(b1-3)[Neu5Ac(a2-6)]GalNAc
# Outline: as §1
# [42] = target: Gal(b1-3)[Neu5Ac(a2-6)]GlcNAc(b1-4)Gal(b1-4)Glc
# Outline: as §1
# [43] = target: Gal(b1-3)[Neu5Ac(b2-6)]GalNAc
# Outline: as §1
# [44] = target: Gal(b1-4)Gal
# Outline: as §1
# [45] = target: Gal(b1-4)GalNAc(a1-3)[Fuc(a1-2)]Gal(b1-4)GlcNAc
# Outline: as §1
binder,measurement,setting,value
B1,glycan array binding signal (z-score),[1],-0.187
same,glycan array binding signal (z-score),[2],-0.172
same,glycan array binding signal (z-score),[3],-0.168
same,glycan array binding signal (z-score),[4],-0.15
same,glycan array binding signal (z-score),[5],-0.164
same,glycan array binding signal (z-score),[6],-0.162
same,glycan array binding signal (z-score),[7],-0.189
same,glycan array binding signal (z-score),[8],-0.173
same,glycan array binding signal (z-score),[9],-0.144
same,glycan array binding signal (z-score),[10],-0.175
same,glycan array binding signal (z-score),[11],-0.156
same,glycan array binding signal (z-score),[12],-0.166
same,glycan array binding signal (z-score),[13],1.55
same,glycan array binding signal (z-score),[14],-0.168
same,glycan array binding signal (z-score),[15],-0.145
same,glycan array binding signal (z-score),[16],0.397
same,glycan array binding signal (z-score),[17],-0.071
same,glycan array binding signal (z-score),[18],0.502
same,glycan array binding signal (z-score),[19],0.235
same,glycan array binding signal (z-score),[20],-0.166
same,glycan array binding signal (z-score),[21],-0.186
same,glycan array binding signal (z-score),[22],-0.202
same,glycan array binding signal (z-score),[23],-0.085
same,glycan array binding signal (z-score),[24],0.552
same,glycan array binding signal (z-score),[25],0.096
same,glycan array binding signal (z-score),[26],-0.174
same,glycan array binding signal (z-score),[27],-0.174
same,glycan array binding signal (z-score),[28],-0.157
same,glycan array binding signal (z-score),[29],-0.169
same,glycan array binding signal (z-score),[30],-0.151
same,glycan array binding signal (z-score),[31],-0.167
same,glycan array binding signal (z-score),[32],-0.177
same,glycan array binding signal (z-score),[33],-0.194
same,glycan array binding signal (z-score),[34],-0.14
same,glycan array binding signal (z-score),[35],-0.178
same,glycan array binding signal (z-score),[36],-0.166
same,glycan array binding signal (z-score),[37],-0.198
same,glycan array binding signal (z-score),[38],-0.173
same,glycan array binding signal (z-score),[39],-0.162
same,glycan array binding signal (z-score),[40],-0.157
same,glycan array binding signal (z-score),[41],-0.174
same,glycan array binding signal (z-score),[42],-0.135
same,glycan array binding signal (z-score),[43],-0.151
same,glycan array binding signal (z-score),[44],-0.131
same,glycan array binding signal (z-score),[45],-0.164
